# In PubChem BioAssay AID504648 (National Center for Advancing Translational Sciences (NCATS), 2011):
# Out of some 390,000 compounds screened, about 610 (0.16%) were called active. Inconclusive results (about 4%) are left out. Calls come from the whole dose curve; as a rule, active = well fitted inhibition curve with a large enough effect; inconclusive = small, poorly fitted or top-dose-only effect, or effect the other way, or another doubt; inactive = no such curve, though single readings can be large or run the other way. The entries are a selection whose mix differs from that of the whole data set.
# Assay: Nrf2 qHTS screen for inhibitors: counterscreen for cytotoxicity
# Conditions: A549 ARE-Fluc cells, CellTiter-Fluor viability, 18-24 h; series mostly up to 46 µM; activity change, negative = cytotoxicity: at the top concentration
# Source text: NIH Molecular Libraries Probe Production Network [MLPCN]
# NIH Chemical Genomics Center [NCGC]
# Assay Provider: Shyam Biswal, Johns Hopkins University
# Nrf2 is a transcription factor that maintains cellular redox homoestasis and protects cells from xenobiotics. Nrf2 binds to the antioxidant response element (ARE) to induce gene expression of a broad spectrum of genes that encode for antioxidants. […] Finding a small molecule that act as an inhibitor of Nrf2 function would represent a novel therapeutic target that could lead to improvement in survival of patients undergoing chemo- and/or radio- therapy.
# So here we implemented a counterscreen to weed out the cytotoxic compounds.
# 1. Shibata, T., et al., Genetic Alteration of Keap1 Confers Constitutive Nrf2 Activation and Resistance to Chemotherapy in Gallbladder Cancer. Gastroenterology, 2008.
# 2. Sjoblom, T., et al., The consensus coding sequences of human breast and colorectal cancers. Science, 2006. 314(5797): p. 268-74.
# NCGC Assay Protocol Summary:
# A concentration-response assay was performed with A549 ARE_Fluc cells which are suspended in 5% FBS OPTI-MEM. Five uL were dispensed into 1536-well white TC-treated plate using the Kalypsys dispenser to achieve a density of 5000 cells/well in all columns except column 1. The plate is incubated at 37deg C at 5% CO2 for 2 hours before 23 nL of compounds are added with the Kalypsys pin tool equipped with a 1,536-pin array containing 10-nL slotted pins (FP1S10, 0.457-mm diameter, 50.8 mm long; V&P Scientific). The control compounds Budesonide and Staurosporine are both added at a concentration of 2mM and Budesonide is also added as a 1:10 titration, starting at 200uM, to achieve dose-response. After an 18-24 hour incubation at 37deg C at 5% CO2, 5ul of medium is added to column 1. Afterwards 1ul of 5x of CellTiter-Fluor (Promega) is added to every well. The plate is then incubated at 37deg C at 5% CO2 for 30 minutes before they are read on the ViewLux (Perkin Elmer) for a fluorescent read Ex=405(10)/Em=525(10) for a 3 second exposure, 2x binning, and high gain. Then 3 uL of 3x BugLite is dispensed into all wells and the plate is incubated at ambient room temperature for 15 minutes. Afterwards another ViewLux read is performed using the clear filter to get a luminescent read with the settings of 40 second exposure, 2x binning, and high gain. Cytotoxicity is assessed through the first fluorescent read and then biochemical activity against Nrf2 is measured in the luminescent read.
# % is set by controls: 0 for no effect and ±100 for the full control effect; potency is the fitted concentration of half-maximal effect.
Compound,"activity change, negative = cytotoxicity",Potency
CN(C)[C@@H]1C(=O)C(C(N)=O)=C(O)[C@@]2(O)C(=O)C3=C(O)c4c(O)ccc(Cl)c4[C@@](C)(O)[C@H]3C[C@@H]12,inactive: 1.47%,
CCC(C)/C=C(C)/C=C/C1=CC2=C(Cl)C(=O)C(C)(OC(C)=O)C(=O)C2=CO1 (stereo unspecified),inactive: -22.4%,
NCCc1cc(O)c(O)cc1O,inactive: -13.4%,
C[C@]12CC[C@H](O)C[C@H]1CC[C@@H]1C2CC[C@]2(C)[C@@H](C3=CC(=O)OC3)[C@@H](O)C[C@]12O (stereo partly specified),inactive: -19.7%,
C[C@H]1[C@H](OC(=O)CCC(=O)NCc2ccc(C(=O)O)cc2)O[C@@H]2O[C@@]3(C)CC[C@H]4[C@H](C)CC[C@@H]1C24OO3,,active: 20.6 µM
CC(C)n1c(/C=C/[C@H](O)C[C@H](O)CC(=O)O)c(-c2ccc(F)cc2)c2ccccc21,inactive: -12%,
O=C1/C(=C/c2ccncc2)N2CCC1CC2,inactive: 1.5%,
CC(=O)OC(C)(C)/C=C/C(=O)C(C)(O)C1C(O)CC2(C)C3CC=C4C(CC(O)C(=O)C4(C)C)C3(C)C(=O)CC12C (stereo unspecified),,active: 2.91 µM
CC[C@H](C)/C=C(C)/C=C/C1=CC2=C(Cl)C(=O)[C@@](C)(OC(C)=O)C(=O)C2=CO1,inactive: -18.4%,
COC[C@H]1OC(=O)c2coc3c2[C@@]1(C)C1=C(C3=O)[C@@H]2CCC(=O)[C@@]2(C)C[C@H]1OC(C)=O,,active: 16.4 µM
O=C1NC(=O)N(Cc2ccccc2)C(=O)/C1=C/C=C/c1ccco1,inactive: -15%,
COc1ccc(-n2c(/C=C3/C(=O)Nc4ccccc43)nc3ccccc3c2=O)cc1,inactive: -14.4%,
COc1cc2c3cc1Oc1c(OC)c(OC)cc4c1[C@H](Cc1ccc(cc1)Oc1cc(ccc1O)C[C@H]3N(C)CC2)N(C)CC4,,active: 13 µM
COc1cc2c(c(OC)c1OC)-c1ccc(O)c(=O)cc1[C@@H](NC(C)=O)CC2,inactive: -17%,
Cn1nc(-c2ccc(OCC(=O)N3CCN(Cc4ccccc4)CC3)cc2)c2ccccc2c1=O,inactive: -1.7%,
COc1ccc(OC)c(N2C(=O)NC(=O)/C(=C\c3ccc([N+](=O)[O-])s3)C2=O)c1,inactive: -15%,
CC(=O)O[C@@]12CO[C@@H]1C[C@H](O)[C@@]1(C)C(=O)[C@H](O)C3=C(C)[C@@H](O)C[C@@](O)([C@@H](OC(=O)c4ccccc4)C12)C3(C)C (stereo partly specified),inactive: -0.132%,
COc1cc(NC(=O)CCn2c(=O)oc3ccccc32)cc(OC)c1OC,inactive: 0.38%,
COc1ccc(N2C(=O)NC(=O)/C(=C\c3ccc([N+](=O)[O-])s3)C2=O)cc1,inactive: -25%,
Cc1ccccc1N1C(=O)NC(=O)/C(=C\c2cc(Br)c(N3CCOCC3)o2)C1=O,,active: 23.1 µM
Fc1ccc([C@@H]2CCNC[C@H]2COc2ccc3c(c2)OCO3)cc1,inactive: -11.2%,
COC(COC(N)=O)C1=C(N2CC2)C(=O)C(C)=C(N2CC2)C1=O (stereo unspecified),,active: 10.3 µM
Cc1cc(C)cc(N2C(=O)NC(=O)/C(=C/c3cccn3-c3ccc(Cl)cc3)C2=O)c1,inactive: -6.43%,
CC(=O)OC(C)(C)/C=C/C(=O)[C@](C)(O)C1[C@H](O)C[C@@]2(C)C3CC=C4C(C[C@H](O)C(=O)C4(C)C)[C@]3(C)C(=O)C[C@]12C (stereo partly specified),,active: 0.651 µM
COc1cc(C2c3cc4c(c(O)c3CC3COC(=O)C32)OCO4)cc(OC)c1OC (stereo unspecified),inactive: -3.43%,
CC1=C(N2CC2)C(=O)C(CO)=C(N2CC2)C1=O,,active: 9.2 µM
